Measured values as given in publication PMC4336329 (PLoS ONE, 2015).
Among all 310,000 compounds or so, about 14,000 (4.5%) showed an effect of 50% or more. The effect is printed as a negative number. This is one part of the list.
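Further: peak tail current of the secondary pulse compared with the same well before compound.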

These molecules were tested against human ether-à-go-go-related gene (hERG) potassium channel (human, UniProt Q12809) (assay: primary screen, population patch clamp on CHO cells stably expressing hERG).
human ether-à-go-go-related gene (hERG) potassium channel, sequence (Q12809 whole entry, looked up): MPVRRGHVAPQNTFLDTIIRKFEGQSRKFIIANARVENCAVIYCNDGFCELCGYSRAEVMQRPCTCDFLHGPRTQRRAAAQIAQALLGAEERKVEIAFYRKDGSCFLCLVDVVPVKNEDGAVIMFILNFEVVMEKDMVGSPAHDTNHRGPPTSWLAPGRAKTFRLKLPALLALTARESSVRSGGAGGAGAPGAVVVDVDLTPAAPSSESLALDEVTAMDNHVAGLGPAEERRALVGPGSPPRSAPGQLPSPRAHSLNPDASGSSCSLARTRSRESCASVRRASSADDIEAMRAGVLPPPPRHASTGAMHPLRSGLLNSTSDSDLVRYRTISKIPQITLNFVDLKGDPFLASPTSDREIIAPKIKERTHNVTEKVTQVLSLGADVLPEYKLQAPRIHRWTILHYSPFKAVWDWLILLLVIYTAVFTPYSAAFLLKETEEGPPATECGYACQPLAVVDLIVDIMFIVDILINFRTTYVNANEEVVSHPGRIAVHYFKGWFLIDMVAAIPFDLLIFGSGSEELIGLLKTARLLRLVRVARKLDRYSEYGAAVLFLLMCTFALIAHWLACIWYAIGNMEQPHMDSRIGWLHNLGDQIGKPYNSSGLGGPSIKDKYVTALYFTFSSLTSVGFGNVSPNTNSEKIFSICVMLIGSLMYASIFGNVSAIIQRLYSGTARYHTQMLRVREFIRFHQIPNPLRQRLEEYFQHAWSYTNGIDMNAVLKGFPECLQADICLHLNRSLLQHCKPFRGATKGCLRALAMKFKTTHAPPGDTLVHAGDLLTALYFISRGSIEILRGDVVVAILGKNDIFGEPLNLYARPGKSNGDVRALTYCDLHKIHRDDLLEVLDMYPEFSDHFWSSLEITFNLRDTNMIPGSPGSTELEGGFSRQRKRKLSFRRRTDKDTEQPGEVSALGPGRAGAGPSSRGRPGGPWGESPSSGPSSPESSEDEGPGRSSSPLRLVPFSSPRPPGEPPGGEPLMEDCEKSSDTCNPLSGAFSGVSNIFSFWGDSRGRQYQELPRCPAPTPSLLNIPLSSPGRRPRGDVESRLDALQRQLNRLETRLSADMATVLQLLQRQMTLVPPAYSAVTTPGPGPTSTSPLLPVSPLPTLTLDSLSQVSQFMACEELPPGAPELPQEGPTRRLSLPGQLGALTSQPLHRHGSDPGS
For `O=C(c1cc(-c2ccc(Br)cc2)nc2ccccc12)N1CCC1`, the “hERG current change (%, negative = inhibition) at 10uM” value was -44.4%. `O=C(CC1S/C(=N/N=C/C=C/c2ccccc2)NC1=O)Nc1ccc(C(=O)O)cc1` (stereo not drawn) was tested, and the “hERG current change (%, negative = inhibition) at 10uM” value was 18.7%. For `CC(=O)c1ccccc1NC(=O)COC(=O)c1cc(C)oc1C`, the “hERG current change (%, negative = inhibition) at 10uM” value was 2.23%. With `O=C1CCC2CCCCC2(O)O1` (stereo not drawn) the “hERG current change (%, negative = inhibition) at 10uM” value was 2.29%. In the case of `CC(C)(C)NC(=O)C(c1ccc(F)cc1)N(Cc1ccco1)C(=O)Cn1nnc(-c2cccs2)n1` (stereo not drawn), the “hERG current change (%, negative = inhibition) at 10uM” value is reported as 12.7%. With `COc1ccc(CCNC(=O)c2ccc(NC(=O)CC3SC(N4CCCC4)=NC3=O)cc2)cc1` (stereo not drawn) the “hERG current change (%, negative = inhibition) at 10uM” value was -0.214%. `O=C(COc1ccc(Cl)cc1Cl)N(C1CCCCC1)C1CCS(=O)(=O)C1` (stereo not drawn) was tested, and the “hERG current change (%, negative = inhibition) at 10uM” value was 8.94%. In the case of `COc1ccc([C@]2(C(C)C)ON(c3ccccc3C(F)(F)F)C2=O)cc1`, the “hERG current change (%, negative = inhibition) at 10uM” value is reported as 9.73%. With `Cc1ccc(C)n1-c1ccc(C(=O)NCC2CCCO2)cc1` (stereo not drawn) the “hERG current change (%, negative = inhibition) at 10uM” value was -5.76%. In the case of `COc1cccc(CCNC(=O)C2CCC(=O)N(Cc3cccc(OC)c3)C2)c1` (stereo not drawn), the “hERG current change (%, negative = inhibition) at 10uM” value is reported as -0.0336%. `CC1=C(C(=O)OCCOc2ccccc2)C(c2ccsc2)NC(=O)N1C` (stereo not drawn) was tested, and the “hERG current change (%, negative = inhibition) at 10uM” value was -15.3%. For `Cn1c(SCC(=O)N2CCOCC2)nc(O)cc1=O`, the “hERG current change (%, negative = inhibition) at 10uM” value was 9.81%. With `COC(=O)c1sccc1NC(=O)Cc1ccc(OC)cc1` the “hERG current change (%, negative = inhibition) at 10uM” value was -14.4%. `O=C(Cn1cc2c(n1)CCCCC2)NCc1ccccc1` was tested, and the “hERG current change (%, negative = inhibition) at 10uM” value was -7.9%. For `CN(c1ccccc1C(=O)N1CCN(c2ccccc2F)CC1)S(=O)(=O)c1ccccc1`, the “hERG current change (%, negative = inhibition) at 10uM” value was -34.4%. With `CCOC(=O)[C@@H]1[C@H]2COc3ccc(Br)cc3[C@@H]2N2C(=O)N(c3cccc(F)c3)C(=O)[C@@]12C` the “hERG current change (%, negative = inhibition) at 10uM” value was 2.37%. With `C=CCNC(=O)/C=C/c1ccc(C(C)C)cc1` the “hERG current change (%, negative = inhibition) at 10uM” value was -12.5%. For `O=C(CCc1nnc2ccc(NCc3ccco3)nn12)Nc1ccccn1`, the “hERG current change (%, negative = inhibition) at 10uM” value was 16.3%. `COc1cc(C(C)=O)ccc1Oc1ncnc2c1cnn2-c1cccc(Cl)c1` was tested, and the “hERG current change (%, negative = inhibition) at 10uM” value was 11.7%. In the case of `COc1cc2c(cc1OC)C(c1cc3ccc(C)cc3[nH]c1=O)N(C(=O)c1ccco1)CC2` (stereo not drawn), the “hERG current change (%, negative = inhibition) at 10uM” value is reported as -32.6%. `CC12CC3CC(C)(C1)CC(C(=O)NC1=NCCS1)(C3)C2` was tested, and the “hERG current change (%, negative = inhibition) at 10uM” value was -5.65%. In the case of `S=c1[nH]nc(Cc2ccc(Br)cc2)n1/N=C/c1ccc(Cl)cc1`, the “hERG current change (%, negative = inhibition) at 10uM” value is reported as 24.8%. For `NC(=O)C1CCN(C(=O)NC2CC(=O)N(c3ccc4c(c3)OCCO4)C2)CC1` (stereo not drawn), the “hERG current change (%, negative = inhibition) at 10uM” value was -3.63%. With `Cc1c(NC(=O)Cn2ccc([N+](=O)[O-])n2)c(=O)n(-c2ccccc2)n1C` the “hERG current change (%, negative = inhibition) at 10uM” value was 24.2%. For `CCOc1ccc(C2=NNC(c3cccnc3)=Nc3ccc(OC)cc32)cc1`, the “hERG current change (%, negative = inhibition) at 10uM” value was 3.01%. For `CC(=O)O.NC(N)=N/N=C/c1c(Cl)cccc1Cl`, the “hERG current change (%, negative = inhibition) at 10uM” value was -28.5%. `CCN(CC)C(=O)Cn1cc(C(=O)C(=O)NCc2ccco2)c2ccccc21` was tested, and the “hERG current change (%, negative = inhibition) at 10uM” value was -11.3%. For `Cl.OCCN1CCN(CC(O)COc2ccc3ccccc3c2)CC1` (stereo not drawn), the “hERG current change (%, negative = inhibition) at 10uM” value was 0.598%. `CCOc1ccc(-c2nc(CCl)cs2)cc1.Cl` was tested, and the “hERG current change (%, negative = inhibition) at 10uM” value was 7.6%. With `NS(=O)(=O)c1ccc(NC(=O)CN2CCCc3ccccc32)cc1` the “hERG current change (%, negative = inhibition) at 10uM” value was -5.73%. With `COC(=O)c1cccc(NC(=O)CC2C(=O)NCCN2C(=O)c2ccc(F)cc2F)c1` (stereo not drawn) the “hERG current change (%, negative = inhibition) at 10uM” value was 11.4%. In the case of `Cc1ccc(S(=O)(=O)N2CC=C(C(=O)NCc3ccc(F)cc3)CC2)cc1`, the “hERG current change (%, negative = inhibition) at 10uM” value is reported as -43.4%. With `FC(F)(F)Oc1ccc(NC(=S)Nc2ccccc2N2CCOCC2)cc1` the “hERG current change (%, negative = inhibition) at 10uM” value was -10.7%. In the case of `[O-]/C(=C(\C(=S)Nc1ccccc1F)[n+]1ccccc1)c1ccc(-c2ccccc2)cc1`, the “hERG current change (%, negative = inhibition) at 10uM” value is reported as 10.6%. In the case of `COC(CNC(=O)CSCc1nc(-c2ccc(SC)cc2)oc1C)OC`, the “hERG current change (%, negative = inhibition) at 10uM” value is reported as 1.22%. For `CCOc1ccccc1/C=N/N1CCN(Cc2ccccc2)CC1.Cl`, the “hERG current change (%, negative = inhibition) at 10uM” value was 16.4%. `CCOc1cc(N2CCOCC2)c(OCC)cc1NC(=O)CN1C(=O)N(C)C2(CCCCC2)C1=O` was tested, and the “hERG current change (%, negative = inhibition) at 10uM” value was -23.5%. In the case of `O=C(COc1ccccc1)Nc1c(Cl)ccc2nsnc12`, the “hERG current change (%, negative = inhibition) at 10uM” value is reported as 11.9%. In the case of `COc1ccc(C(=O)NCCC2=CCCCC2)cc1S(=O)(=O)N1CCOCC1`, the “hERG current change (%, negative = inhibition) at 10uM” value is reported as -40.4%. In the case of `COc1ccc(NC(=O)CSc2n[nH]c(=O)n2Cc2ccccc2)cc1Cl`, the “hERG current change (%, negative = inhibition) at 10uM” value is reported as -10.4%. For `O=C(c1ccc(C(=O)N2CCOCC2)s1)N1CCOCC1`, the “hERG current change (%, negative = inhibition) at 10uM” value was 1.17%. With `CCOC(=O)c1ccc(NC(=O)C(CC)CC)cc1` the “hERG current change (%, negative = inhibition) at 10uM” value was -6.13%. In the case of `Cc1ccc(/C=N/n2c(C)n[nH]c2=S)o1`, the “hERG current change (%, negative = inhibition) at 10uM” value is reported as 7.03%. In the case of `Cc1ccc(-n2ncc(-c3nn[nH]n3)c2N)cc1`, the “hERG current change (%, negative = inhibition) at 10uM” value is reported as 24.6%. `C/C(=N\NC(=O)CNC(=O)c1ccco1)c1ccc(Br)cc1` was tested, and the “hERG current change (%, negative = inhibition) at 10uM” value was 11.9%. In the case of `COc1cc(SC)ccc1C(=O)OCC(=O)N1CCCC1`, the “hERG current change (%, negative = inhibition) at 10uM” value is reported as 3.69%. In the case of `COc1ccc(NC(=O)[C@@H](NC(=O)c2ccccc2F)C(C)C)cc1S(=O)(=O)N1CCOCC1`, the “hERG current change (%, negative = inhibition) at 10uM” value is reported as -37.1%. In the case of `Cc1cc(C)cc(NC(=O)Nc2cnccn2)c1`, the “hERG current change (%, negative = inhibition) at 10uM” value is reported as 12%. In the case of `OCC[C@H]1C[C@@H](O)[C@H](O)[C@@]2(OCc3ccccc32)O1`, the “hERG current change (%, negative = inhibition) at 10uM” value is reported as 7.27%. In the case of `CCOC(=O)N1CCN(S(=O)(=O)N2CCCC(C(=O)NCc3ccc(OC)cc3)C2)CC1` (stereo not drawn), the “hERG current change (%, negative = inhibition) at 10uM” value is reported as 1.39%. With `O=S(=O)(NCc1ccccc1Cl)c1ccc(-n2cccn2)cc1` the “hERG current change (%, negative = inhibition) at 10uM” value was 14.2%. With `O=C(Cc1cccc2ccccc12)Nc1ccc2oc(-c3ccccc3)nc2c1` the “hERG current change (%, negative = inhibition) at 10uM” value was 7.35%. In the case of `CCC1CCCCN1C(=O)CCc1nnc(C2CCCCC2)o1` (stereo not drawn), the “hERG current change (%, negative = inhibition) at 10uM” value is reported as -55%. `O=C(Cc1ccc(S(=O)(=O)N2CCOCC2)s1)NCC1CCCCC1` was tested, and the “hERG current change (%, negative = inhibition) at 10uM” value was -9.9%. In the case of `CCc1cc(C(=O)N2CCCC(C(=O)c3cccc(OC(C)C)c3)C2)n(C)n1` (stereo not drawn), the “hERG current change (%, negative = inhibition) at 10uM” value is reported as -6.49%. `Cc1ccc(CCSCC(=O)O)cn1` was tested, and the “hERG current change (%, negative = inhibition) at 10uM” value was 18.9%. With `Cc1c(CCOC(=O)C23CC4(C)CC(C)(CC(C)(C4)C2)C3)sc[n+]1CC(=O)c1ccccc1.[Br-]` the “hERG current change (%, negative = inhibition) at 10uM” value was -19.5%.
